Test results reported in PubChem BioAssay AID624417 (National Center for Advancing Translational Sciences (NCATS), 2012).
About 6,400 (1.6%) of roughly 410,000 compounds were called active. Inconclusive results, whose numbers are uncertain, are shown with a selection of clear calls. Calls come from the whole dose curve; as a rule, active = well fitted inhibition curve with a large enough effect; inconclusive = small, poorly fitted or top-dose-only effect; inactive = no such curve, though single readings can be large or run the other way. Potencies of inconclusive entries are left out as doubtful fits.

These compounds were tested against Glucagon-like peptide 1 receptor (Homo sapiens) (UniProt P43220) (assay: qHTS of GLP-1 Receptor Inverse Agonists (Inhibition Mode)). Conditions: HEK293 GLP-1R CRE-luciferase, luminescence, 24 h; Potency: GLP-1R form is constitutively active unless noted; series mostly up to 38.3 µM.
Method in brief: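 Readout was luciferase luminescence, measured 12 min after detection reagent at room temperature. Beforehand, GLP-1R reporter HEK293 cells had sat 12 h, then received compounds for 24 hr at 37 deg C.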
Note: nearly all actives have a fitted effect of over 55% in size.
Potency is the fitted concentration of half-maximal effect; tags give direction and shape of the fitted curve.

Chain of UniProt P43220 (P43220 whole entry, looked up): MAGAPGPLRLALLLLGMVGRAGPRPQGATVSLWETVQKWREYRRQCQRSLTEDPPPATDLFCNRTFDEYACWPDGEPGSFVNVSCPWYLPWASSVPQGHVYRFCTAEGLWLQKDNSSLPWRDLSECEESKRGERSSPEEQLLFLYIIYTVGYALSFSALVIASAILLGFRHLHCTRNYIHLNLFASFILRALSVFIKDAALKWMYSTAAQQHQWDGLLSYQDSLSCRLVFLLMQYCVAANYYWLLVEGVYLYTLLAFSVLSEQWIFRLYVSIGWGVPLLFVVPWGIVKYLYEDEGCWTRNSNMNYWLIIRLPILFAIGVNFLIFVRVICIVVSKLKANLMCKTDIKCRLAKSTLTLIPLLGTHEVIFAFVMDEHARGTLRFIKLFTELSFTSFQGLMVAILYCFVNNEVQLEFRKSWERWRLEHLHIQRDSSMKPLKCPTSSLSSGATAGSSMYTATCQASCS

For `CCOc1cc2c(cc1OCC)-n1cccc1C(c1cccc(OCC)c1O)NC2` (configuration not stated), which Potency is on record?
The Potency was inconclusive [inhibitor, single point].

Which Potency does the source give for `CC1=CC2/C=C(\C)CCC(O)C(O)/C=C/C(=O)C23C(=O)NC(CC(C)C)C3C1C` (configuration not stated) here?
Its Potency is inconclusive [inhibitor, full curve, poor fit].

How did the Potency turn out when `CCOc1cc(C2NCc3ccccc3-n3cccc32)ccc1OC` (configuration not stated) was run?
The Potency was active: 10 µM.

Which Potency does the source give for `CCOC(=O)[C@]12Cc3ccccc3[C@H]1N(Cc1ccccc1)C(=O)c1ccccc12` here?
The Potency was inconclusive [inhibitor, partial curve, poor fit].

How did the Potency turn out when `COC(=O)C1=C(c2ccc(Cl)c(C(F)(F)F)c2)C[C@@H]2CC[C@H]1N2C(=O)NC(C)C` was run?
The Potency was inconclusive [inhibitor, single point].

`Cc1cc(=O)oc2c(C)c(OC3CCCCC3=O)ccc12` (configuration not stated) was tested. Which Potency did it give?
Its Potency is “inactive”.

How did the Potency turn out when `Cc1cccc(-n2c(O)c(C=NCc3cccnc3)c(=O)[nH]c2=O)c1C` was run?
The Potency was “inactive”.

For `CC(=O)[C@@]1(O)CC[C@H]2[C@@H]3CC=C4C[C@@H](O)CC[C@]4(C)[C@H]3CC[C@@]21C`, which Potency is on record?
The Potency was “inactive”.

Which Potency does the source give for `O=c1c2ccccc2nc(-c2ccccc2)n1-c1ccc(O)cc1` here?
The Potency was inconclusive [inhibitor, partial curve, poor fit].

With `Cc1cccc(-n2c(CC3C(=O)Nc4ccc(C)cc43)nc3ccccc3c2=O)c1` (configuration not stated) as the compound, how does the Potency read?
The Potency was inconclusive [inhibitor, partial curve].

Which Potency does the source give for `O=C(NCc1ccc2c(c1)CCN2C(=O)c1ccccc1)Nc1cccc(C(F)(F)F)c1` here?
Its Potency is active: 3.98 µM.

Which Potency does the source give for `Cc1ccsc1C(=O)C1CCCN(Cc2cccc(OCCO)c2)C1` (configuration not stated) here?
Its Potency is “inactive”.

How did the Potency turn out when `O=c1c2ccccc2nc(/C=C/c2ccc3c(c2)OCO3)n1-c1ccccc1` was run?
Its Potency is inconclusive [inhibitor, partial curve, poor fit].

For `O=C1NC(=O)C(=Cc2ccc(N3CCOCC3)cc2)C(=O)N1`, which Potency is on record?
Its Potency is “inactive”.

With `CCc1ccc(CN2CCN(C(=O)Cc3ccccc3)CC2)cc1` as the compound, how does the Potency read?
The Potency was inconclusive [inhibitor, partial curve, poor fit].

Which Potency does the source give for `CN(CCc1ccccc1)Cc1c[nH]c2ccccc12` here?
The Potency was inconclusive [inhibitor, partial curve, poor fit].

For `C[C@H]1CN([C@@H](C)CO)C(=O)c2cc(NC(=O)Nc3cccc4ccccc34)ccc2O[C@@H]1CN(C)Cc1ccc(-c2ccccc2)cc1`, which Potency is on record?
Its Potency is inconclusive [inhibitor, single point].

For `COc1ccc(-c2nn(CCC#N)cc2C(=O)NCc2ccccc2)cc1[N+](=O)[O-]`, which Potency is on record?
Its Potency is “inactive”.

Which Potency does the source give for `COc1cccc(C2=CC(c3cc(Br)ccc3F)n3nnnc3N2)c1` (configuration not stated) here?
The Potency was inconclusive [inhibitor, full curve, poor fit].

For `O=c1[nH]c(=O)n(C2CCCCC2)c(O)c1C1=Nc2ccccc2SC(c2ccc(Cl)cc2)C1` (configuration not stated), which Potency is on record?
Its Potency is inconclusive [inhibitor, single point].

For `CNC(=O)Oc1cccc2ccccc12`, which Potency is on record?
The Potency was “inactive”.

Which Potency does the source give for `S=C(NCCc1ccccc1)N1Cc2cc(Br)ccc2-n2nncc2C1` here?
Its Potency is inconclusive [inhibitor, partial curve, poor fit].

Which Potency does the source give for `Cc1nc2ccccn2c1P(=S)(N1CCCCC1)N1CCCCC1` here?
Its Potency is inconclusive [inhibitor, single point].

Which Potency does the source give for `Cc1ccc(CN2CCSc3ccc(C(=O)N4CCC5(CC4)OCCO5)cc32)cc1` here?
The Potency was inconclusive [inhibitor, partial curve, poor fit].

For `COc1ccc(NC(=O)c2cccn(Cc3ccc(Cl)cc3)c2=O)c(OC)c1`, which Potency is on record?
Its Potency is inconclusive [inhibitor, full curve, poor fit].

`C/C(=N\Nc1ccccc1)c1c(O)[nH]c(=O)[nH]c1=O` was tested. Which Potency did it give?
Its Potency is inconclusive [inhibitor, full curve, poor fit].

For `COc1ccccc1-n1c(-c2ccccc2Br)nc2ccccc2c1=O`, which Potency is on record?
Its Potency is inconclusive [inhibitor, single point].

`CC(Cc1ccccc1)NC(=O)CN1CCCC1=O` (configuration not stated) was tested. Which Potency did it give?
Its Potency is “inactive”.

With `c1ccc2c3c([nH]c2c1)C1(CCNCC1)NCC3` as the compound, how does the Potency read?
The Potency was inconclusive [inhibitor, partial curve, poor fit].

With `CC[C@H]1CN(C)C[C@@]2(C(=O)OC)Cc3c([nH]c4ccccc34)C(=O)C[C@@H]12` as the compound, how does the Potency read?
The Potency was “inactive”.

With `COc1cc(C=C2C(=O)NC(=O)NC2=O)cc(OC)c1OC` as the compound, how does the Potency read?
Its Potency is “inactive”.

How did the Potency turn out when `CCOc1ccc(CN2CCN(C(=O)Cc3ccccc3)CC2)cc1` was run?
The Potency was “inactive”.

Which Potency does the source give for `COc1ccc(CN2CC=C(c3ccc(F)cc3)CC2)cc1Br` here?
The Potency was inconclusive [inhibitor, partial curve, poor fit].

How did the Potency turn out when `O=C(NC12CC3CC(CC(C3)C1)C2)OC1CN2CCC1CC2` (configuration not stated) was run?
Its Potency is inconclusive [inhibitor, single point].

With `Clc1ccc2[nH]c3c(c2c1)CCNC3` as the compound, how does the Potency read?
Its Potency is inconclusive [inhibitor, full curve].

`O=P(Nc1cccnc1)(Oc1ccccc1Cl)Oc1ccccc1Cl` was tested. Which Potency did it give?
The Potency was inconclusive [inhibitor, single point].

Which Potency does the source give for `O=C(Nc1ccc(F)cc1)[C@@H](c1ccccc1)N1Cc2ccccc2C1=O` here?
Its Potency is inconclusive [inhibitor, partial curve, poor fit].

With `O=C(Nc1ccc(F)cc1)NC1CCN(Cc2ccccc2)CC1` as the compound, how does the Potency read?
Its Potency is inconclusive [inhibitor, single point].

`CC(C)(O)/C=C/C(=O)[C@](C)(O)C1[C@H](O)C[C@@]2(C)C3CC=C4C(C[C@H](O)[C@@H](O)C4(C)C)[C@]3(C)C(=O)C[C@]12C` (some centres not stated) was tested. Which Potency did it give?
Its Potency is inconclusive [inhibitor, partial curve, poor fit].

With `O=C(CCl)Nc1nccs1` as the compound, how does the Potency read?
The Potency was inconclusive [inhibitor, single point].

For `c1ccc(-c2[nH]c(-c3ccccc3)[n+](CC3CO3)c2-c2ccccc2)cc1` (configuration not stated), which Potency is on record?
The Potency was inconclusive [inhibitor, partial curve].

How did the Potency turn out when `CN1CC=C2C(C#N)=C(N)C(C#N)(C#N)C(c3ccncc3)C2C1` (configuration not stated) was run?
The Potency was “inactive”.
